Reference: the supplement of paper PMC11417369
This is one part of the list.

Each sequence was assayed on PfSIP2 AP2 domain 1 (GST-tagged) (assay: gcPBM binding intensity (ln(normalized median fluorescence intensity)); higher = stronger DNA binding).
Outline: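 Using an Agilent 4 × 180k array, primer-extended double-stranded 36-bp intergenic genomic probes and negative controls were exposed for 1 h to GST-fused P. falciparum DNA-binding domains expressed in E. coli. Binding was carried out in 1× PBS with 1% milk, 0.2 mg/ml BSA, 0.5% salmon testes DNA and 0.03% Triton X-100, and protein was detected with Alexa488 anti-GST antibody and a 488 nm scan. Binding intensity is the highest Masliner-normalised natural-log median intensity across replicate spots of either probe orientation.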

| Sequence | gcPBM binding intensity (ln) |
| --- | --- |
| GTAAATATAAACTCAGCACACAAACATATATATGTC [CACACA_site9326] | 6.92 |
| CACTTTTTTTTTTACTGTACATATACAAATTAAAAA [XGTACX_site1565] | 7.37 |
| TTTTATTTATCTTAATGTACACATTTATATATATAT [XGTACX_site8588] | 9.14 |
| TATAATAATTAAAAGTGTACTAAATTTTTACATATA [XGTACX_site2523] | 6.94 |
| TGGGTGTAGAACAATTGTACTTTGTAAAAATATAAG [XGTACX_site8464] | 6.96 |
| TTTTTTTTCAATGGTTGTACAAAGTAAAACAACAAA [XGTACX_site1582] | 7.2 |
| ATCCATCTTTTAATTTGTACTTATTCTTTTTTCTTT [XGTACX_site5299] | 7.04 |
| ATTAGTTTTATATATAGTACATATAATTTTGAAGGT [XGTACX_site7445] | 7.53 |
| ATATATATATGTAATAGTACATATGATAGTTTGTCA [XGTACX_site1545] | 9 |
| TTGTAATTTATTCAAACACACAATTTGGACCTTTTT [CACACA_site1063] | 6.7 |
| TATTCATAATTTTAATGTACAAAATGGTTTGTAATA [XGTACX_site8493] | 6.82 |
| AAAGATAAATTAAAAAGTACATATTTATTCAATGTA [XGTACX_site8543] | 6.86 |
| TATGATATATATAATACACACATATACATAAGATCT [CACACA_site1119] | 6.94 |
| AATATATATATATTATCACACACTCACGTTTGACAA [CACACA_site8130] | 7.22 |
| TAAAAAAAACGAACAAGTACACATAAAAAAAAATTA [XGTACX_site5982] | 6.9 |
| ATTATATCATATATATGTACACATATATAACATGAT [XGTACX_site7] | 7.18 |
| ACAATATATAAAATATGTACATAATATATATAATGA [XGTACX_site8731] | 7.03 |
| CCTAATTTTATTAGGGTGCATTTTTAGTTAAATATA | 11.2 |
| TAAGTTATATGTACTACACACGTACACAAAATAAGA [CACACA_site9237] | 7.39 |
| ATCCACAAATTAACAAGTACATATATATATATATAT [XGTACX_site1267] | 9.83 |
| TGATGAAAATTTTTCTGTACAAAAAGTATGAAGGTA [XGTACX_site8901] | 7.51 |
| AATTTAATATAATGCACACATAAAAAAAAATTCAAA [CACACA_site2062] | 7.16 |

| Sequence | gcPBM binding intensity (ln) |
| --- | --- |
| ATGAAAACCATGACGGGTACTCATTTATTATTTTAT [XGTACX_site6724] | 6.52 |
| ATTTATTTGTTTATTTGTTTATTTGTTTATTTGTTT [CACACA_negctrl_site1386] | 7.1 |
| TTAAGAATCTATACTAGTACATATATGTATACAAGC [XGTACX_site8025] | 6.95 |
| ATTGTGTTAATAAAATGTACATTTTCTCTACTTTAA [XGTACX_site1199] | 6.95 |
| TGTAGAACAAAAAATTGTACATATTTGTAAAAAAAA [XGTACX_site3850] | 6.85 |
| TATATATATATGTGTAGTACAACAAATATGAAAAAT [XGTACX_site4059] | 8.79 |
| GTATATATATATAAAAGTACATGTTATGAAAAAAAA [XGTACX_site5410] | 7.15 |
| TATATATAGAAACACACACACATATATATATATATA [CACACA_site773] | 9.29 |
| TTTTTTCTCAAAAAAAAAACCTATGGTTATTAAGAT [XGTACX_negctrl_site534] | 6.77 |
| ATTAAGTATATTTCTGCACACAAAAAAAAAAACCAA [CACACA_site9342] | 7.39 |
| TTATAATTCTATTATCTGTTCTTTTTATATTTTTTT [CACACA_negctrl_site855] | 6.54 |
| TTCTAAACACATTGACAAATTAATATATTACAGCAA [GTGCAC_negctrl_site121] | 6.98 |
| TTATTTTTCAATGAAAAGGATTATATATATATATAT [CACACA_negctrl_site757] | 9.42 |
| TATAAGAAAAATAACACACACATAAACATAAATACA [CACACA_site5536] | 7.03 |
| AAAAAAAAAAAAAAATGTACATAAAAATGATATAAT [XGTACX_site4096] | 7.36 |
| AAAATTTATAGTATGGTGCATAAAAATATATATATA | 10.3 |
| TTCAAGATTTATTATACACACATATTAAAATATATA [CACACA_site4479] | 6.89 |
| AAACATTTTCATTTGACACACATCATATATTTATAT [CACACA_site1794] | 7.04 |
| AATCTATCAAAGTGTACATGCAATAAAAAAAAAAAA [TGCATGCA_site103] | 7.09 |
| AAAAAATTATTATGAACACACATTTATTATATTCAT [CACACA_site1566] | 6.78 |
| CTTTCATTTCTATCTACACACATATTTTTTCCAAGT [CACACA_site2972] | 7.32 |
| TTAATGTACAGACACCCACACACAAACAAATATATA [CACACA_site8888] | 7.2 |
